In article PMC7819943, “Rice protein-binding microarrays: a tool to detect cis-acting elements near promoter regions in rice”:
The other results are listed elsewhere or left out.

Each sequence was assayed against T1, OsWOX13 (Oryza sativa, UniProt Q5QMM3 1-267) (assay: protein-binding microarray (RPBM); PBS, 2% BSA, 51.3 ng/ul salmon testes DNA, 50 uM zinc acetate, 200 nM TF, 25 C, 1 h; high values mean tight binding). Conditions: protein: recombinant; tags: N-terminal polyhistidine and DsRed monomer fusion (pET32a); label: CyDye5-dUTP incorporated in the synthesized complementary strand; 3' TTTTT single-stranded linker to array surface; dsDNA, one strand shown.
T1 sequence: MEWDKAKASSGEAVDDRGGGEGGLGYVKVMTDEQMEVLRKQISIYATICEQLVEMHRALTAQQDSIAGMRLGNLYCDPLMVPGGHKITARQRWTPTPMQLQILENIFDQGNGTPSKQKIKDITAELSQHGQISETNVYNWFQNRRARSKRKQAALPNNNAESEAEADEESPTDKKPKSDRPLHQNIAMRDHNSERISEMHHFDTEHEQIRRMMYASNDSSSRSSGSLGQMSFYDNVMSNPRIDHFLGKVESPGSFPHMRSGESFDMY
Procedure, shortened: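 Polyhistidine-tagged DsRed fusions of transcription factors, joined at the N-terminus, were expressed in E. coli BL21-CodonPlus and isolated on Ni–NTA. They were incubated at 200 nM for 1 h at 25 °C on a custom Agilent array, double-stranded and BSA-blocked, in PBS with 2% BSA, salmon testes DNA and 50 µM zinc acetate. The binding signal is per-feature fluorescence intensity (arbitrary units) read on an Axon 4000B scanner after washing.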

Sequence	binding signal
GTTTGATTGCACGACTGGTAACGGTTTCTTCTCTCTTTTGCGGAGTCACCTAGTGCAG	50100 fluorescence intensity (a.u.)
TCCCAATTACCTGCCCCTACCCAGGTATTGAAAAGGATGGCGGAGTCACCTAGTGCAG	4100 fluorescence intensity (a.u.)
AAAATTGATGAATAATTACTCTACTGTTTTACTTCTAAATCGGAGTCACCTAGTGCAG	44400 fluorescence intensity (a.u.)
TACCACTCATTTGTGATAGATGAGATGCCACTTGTCTCCCCGGAGTCACCTAGTGCAG	7290 fluorescence intensity (a.u.)
ATATATATATATATATATACCTGTCGATGGTAAAATATGACGGAGTCACCTAGTGCAG	12600 fluorescence intensity (a.u.)
TGAGTTCTTGTTAATTACTAAAGGATTGCGGCCATGGATGCGGAGTCACCTAGTGCAG	3350 fluorescence intensity (a.u.)
GAAATCATCATCACCAATCCCACCTGATTCCTCTCCACCGCGGAGTCACCTAGTGCAG	3950 fluorescence intensity (a.u.)
TCACATTGATATTAATTAATCTAGATAAATATATATATGTCGGAGTCACCTAGTGCAG	17200 fluorescence intensity (a.u.)
CGGTTAAAATGATTGTTAGTACAAATTTGGTACTACCTAACGGAGTCACCTAGTGCAG	25500 fluorescence intensity (a.u.)
CATCCAATCACAACCTTCCTCCATTTAATTCTACCTATTTCGGAGTCACCTAGTGCAG	15700 fluorescence intensity (a.u.)
TGTAAATTGCGAGACCAATCTTTTAAGCCTAATTACGCCACGGAGTCACCTAGTGCAG	21000 fluorescence intensity (a.u.)
GAGCTCAATTAATCTCCATCTCCACCGCGAGTCCGACGAACGGAGTCACCTAGTGCAG	3660 fluorescence intensity (a.u.)
CTAATTAACTATCTTCATATACAAGCCCTGAACGATGCATCGGAGTCACCTAGTGCAG	10300 fluorescence intensity (a.u.)
TAGATGATTTCATATTGTCCTTTGAACTGTTCACTTTATTCGGAGTCACCTAGTGCAG	3400 fluorescence intensity (a.u.)
GTATAATTACACTACGATTGTACTGTAATTACATCTGACACGGAGTCACCTAGTGCAG	17800 fluorescence intensity (a.u.)
TGAGCCTAATTAATCCATGATTAGCCTATGTGATGCTACCCGGAGTCACCTAGTGCAG	29500 fluorescence intensity (a.u.)
TTTGATGAGGTATCAAACTAAACAAGCTCGAATCCTGACTCGGAGTCACCTAGTGCAG	3870 fluorescence intensity (a.u.)
CGACAAACTGGACTGAGGGAAAATTGTACCTCACCGAGTCCGGAGTCACCTAGTGCAG	4360 fluorescence intensity (a.u.)
GGCTCTAAATTGTTTATAGTAACGGAATTGCTATATATGTCGGAGTCACCTAGTGCAG	7030 fluorescence intensity (a.u.)
TTGTGATTATTTCTATACCTACCATAGGGAATTTTACAATCGGAGTCACCTAGTGCAG	24600 fluorescence intensity (a.u.)
GTTTGTTTAGATTGGTACCATTTAAAATCATATTATTTTGCGGAGTCACCTAGTGCAG	20600 fluorescence intensity (a.u.)

Sequence	binding signal
CTGAACCAAATTGATACTTGGACAGACCATCTTGGCCTCACGGAGTCACCTAGTGCAG	13500 fluorescence intensity (a.u.)
ACTTTCTAATGCAATCAATCTGTCTGAAATCTGCCAAGTTCGGAGTCACCTAGTGCAG	7870 fluorescence intensity (a.u.)
CTCAACCTAGATTGTTATATTTTCCCTCCAACCTAGATTGCGGAGTCACCTAGTGCAG	4090 fluorescence intensity (a.u.)
TTTGATTAGTTAAGGGACGCCGAATATCTGATTTTGTGGTCGGAGTCACCTAGTGCAG	44300 fluorescence intensity (a.u.)
AGCCTAATTAATCCGCCATTAGCAAATATGGATTACTGTGCGGAGTCACCTAGTGCAG	22900 fluorescence intensity (a.u.)
ATTAACTAGTATAAATTAGTTATTAGATAGACTATAGATGCGGAGTCACCTAGTGCAG	26700 fluorescence intensity (a.u.)
ATTTTAAGTGACGGGTAAATTAAATTTGATTTGTATTTGCCGGAGTCACCTAGTGCAG	33100 fluorescence intensity (a.u.)
CCATAATTATTGTGACATCTGTGACGATGCACAGCCAGTACGGAGTCACCTAGTGCAG	38000 fluorescence intensity (a.u.)
CCATGATTAGTCTATGTGATGCTATAGTAAACATGTGCTACGGAGTCACCTAGTGCAG	29200 fluorescence intensity (a.u.)
CCGTCAATTATACTTATGTATAAAATCTTAACATCAAATTCGGAGTCACCTAGTGCAG	5360 fluorescence intensity (a.u.)
TTGCTTTGTGTAATTAATTTAACAGATTTTGGGAGTATTACGGAGTCACCTAGTGCAG	12300 fluorescence intensity (a.u.)
ATACTATATTGCTTTTGATTATTGAGCTAGTGAGCAAACTCGGAGTCACCTAGTGCAG	5160 fluorescence intensity (a.u.)
TACCCCTAATTTTACTCGATCCCCTCTGTAACCCCGAATTCGGAGTCACCTAGTGCAG	3540 fluorescence intensity (a.u.)
ATAGATTTTCATTAATCTGGCCTCTATATCCACAAGGGTACGGAGTCACCTAGTGCAG	6830 fluorescence intensity (a.u.)
TCAGTAAATTCTCTTGACTGTTTATGATCACATATGTGATCGGAGTCACCTAGTGCAG	4780 fluorescence intensity (a.u.)
GACATGATCGACCAATCAGAGTTAGAGCCGGCGTCGAGTTCGGAGTCACCTAGTGCAG	13900 fluorescence intensity (a.u.)
CTCAACAATTGGCCATGTAAATTAGACATTTCATGATGTTCGGAGTCACCTAGTGCAG	3160 fluorescence intensity (a.u.)
AAACTGATTCTTTGATTATTGACGTCTCATAGACCTACGTCGGAGTCACCTAGTGCAG	31600 fluorescence intensity (a.u.)
AATGATCTGATGGATGTTCTCTCACGTTCAAATCAGAGGCCGGAGTCACCTAGTGCAG	8430 fluorescence intensity (a.u.)
TACGTACCAGTACTAATTAGCACTGTGCCACTGCTAGTATCGGAGTCACCTAGTGCAG	4720 fluorescence intensity (a.u.)
GTGATTGATGTTAATTAGAGCTTACTATTGGTAGTAGGTACGGAGTCACCTAGTGCAG	51900 fluorescence intensity (a.u.)

Sequence	binding signal
GATTTTGATCCAATCAATCTAGTACTCCCTCCGTTTCTAACGGAGTCACCTAGTGCAG	8640 fluorescence intensity (a.u.)
TGAAATTATTAGCAGGGTTTTAAATCTTCTGTTATAGCTGCGGAGTCACCTAGTGCAG	4040 fluorescence intensity (a.u.)
TTGATTGGTATAATAATGCAGTCAACACAATAGCCAATCTCGGAGTCACCTAGTGCAG	20400 fluorescence intensity (a.u.)
GATGCTGATTGGGCTGGATGCTTAGATGATAGAAGGTCAACGGAGTCACCTAGTGCAG	23300 fluorescence intensity (a.u.)
CTAATTTTATGGTTAATGGACACGATTTAATCTAGACTCTCGGAGTCACCTAGTGCAG	13800 fluorescence intensity (a.u.)
TCACGCATAAAATATTAATTATATTTTATCATTTAACAATCGGAGTCACCTAGTGCAG	3250 fluorescence intensity (a.u.)
TGGTTTTAAATTATAATAATGCAGGTCAACTGATATAGTTCGGAGTCACCTAGTGCAG	4730 fluorescence intensity (a.u.)
AAATACAATTAATACGGATTGAGTATTGTACTGTGCTAATCGGAGTCACCTAGTGCAG	3330 fluorescence intensity (a.u.)
CGTTAGCCAAAATCACTCCCCAATCAATCGAGGGAGTCATCGGAGTCACCTAGTGCAG	5120 fluorescence intensity (a.u.)
TTCTTAAACAGAACATTCAAATTAAATACTCTATCCGTCCCGGAGTCACCTAGTGCAG	4910 fluorescence intensity (a.u.)
TATAATTGACATGCAATTATAATAACGTGGGTTAAATATACGGAGTCACCTAGTGCAG	33800 fluorescence intensity (a.u.)
ATCTTCTAATTTGTGTCATTACCGTTACCAAAATTATAGTCGGAGTCACCTAGTGCAG	27000 fluorescence intensity (a.u.)
AGGATTGGACAGAAGAATTGCGGTGGATGCATTGAGGCTCCGGAGTCACCTAGTGCAG	4470 fluorescence intensity (a.u.)
GTTTTATTTTAACTGACGTTTTGGACAATAACACGGTCTACGGAGTCACCTAGTGCAG	3560 fluorescence intensity (a.u.)
AAATAATTTCTATCCTGACGCGACTATAAATCGGACGTCCCGGAGTCACCTAGTGCAG	14200 fluorescence intensity (a.u.)
TAACAAGTCACTCATCAATCCGAATGTTTTCCCGATGGGACGGAGTCACCTAGTGCAG	3320 fluorescence intensity (a.u.)
TTTCATAATTAACTAGTACTAGTCTGTAACCTTGTATGTTCGGAGTCACCTAGTGCAG	15700 fluorescence intensity (a.u.)
ATAAATTGTAGCTTGTGACTTTTCACTAATTCTCACGTATCGGAGTCACCTAGTGCAG	6850 fluorescence intensity (a.u.)
GGACTGTCAATCTTTAATCCTGGAGACCTGGATTATACATCGGAGTCACCTAGTGCAG	4380 fluorescence intensity (a.u.)
AATTGAGACTTCGGTAAAACTTAAGGGACTAAATTAACTACGGAGTCACCTAGTGCAG	52700 fluorescence intensity (a.u.)
GTCATCTAATTAACTAGACCTAGGTATGAACTAAGTAATACGGAGTCACCTAGTGCAG	6630 fluorescence intensity (a.u.)

Sequence	binding signal
TGATTAATTTTCTTTTCACGGGATAGATTAATATACGATACGGAGTCACCTAGTGCAG	18400 fluorescence intensity (a.u.)
AAGTTAATGATGATTTAATGATCATGTGCGTACTTCACTTCGGAGTCACCTAGTGCAG	27000 fluorescence intensity (a.u.)
AATCAATCACAAAACCTAAGTCATATAGAACGCAGCCAGACGGAGTCACCTAGTGCAG	15100 fluorescence intensity (a.u.)
GACAGATGTAATTACAGTATAATCGTAGTGTAATTACACTCGGAGTCACCTAGTGCAG	15500 fluorescence intensity (a.u.)
TCGAAAATTAATTGCAGGAAAGGAAACAAGTAGAGGAATCCGGAGTCACCTAGTGCAG	26500 fluorescence intensity (a.u.)
GCCTAAATTAGCCGCTAAGGACACCCACAATGGTTATCTACGGAGTCACCTAGTGCAG	9220 fluorescence intensity (a.u.)
CAAAAGAGCATGATTAGCATCACATGCCATACACGACTATCGGAGTCACCTAGTGCAG	6080 fluorescence intensity (a.u.)
ACTTAATTAACTTGGTTCTTCCTTTAATTTCTAGCTATATCGGAGTCACCTAGTGCAG	50100 fluorescence intensity (a.u.)
CCGTCGCCTGATGGAGCAGAATCGTGAAACACGTTGTAAGCGGAGTCACCTAGTGCAG	57800 fluorescence intensity (a.u.)
GGTGACTAAGAATGAAGAAGATAATTTGGAGTCAACCTTGCGGAGTCACCTAGTGCAG	4280 fluorescence intensity (a.u.)
TCACCTGACAGGTAATTAACAGGTCCCATGGTATATGAAGCGGAGTCACCTAGTGCAG	47400 fluorescence intensity (a.u.)
TAATTAATAATTAATTAATTATGTGTTAATTGCTTGCTCCCGGAGTCACCTAGTGCAG	65500 fluorescence intensity (a.u.)
ATAAAATTAGAAACATGCCACTAACGTCACGCTTTCCATCCGGAGTCACCTAGTGCAG	5480 fluorescence intensity (a.u.)
CTCTAATAAATAAATAAATCATCAACAATACATGAATATCCGGAGTCACCTAGTGCAG	4180 fluorescence intensity (a.u.)
TTCATTAGTACATAATTAATTAAGTATATTAGTTAAAAGTCGGAGTCACCTAGTGCAG	5110 fluorescence intensity (a.u.)
TTTAATTTGCTTCTGTGAGACAGTGAGAGTGGAATTCTGACGGAGTCACCTAGTGCAG	6870 fluorescence intensity (a.u.)
TAAATATATTGTCAAATTATATTTAATGTTTTATTTGATACGGAGTCACCTAGTGCAG	3180 fluorescence intensity (a.u.)
TTCTTCTATTTATAATTTCCACTGTTTGTTCAAGTTTAGACGGAGTCACCTAGTGCAG	3650 fluorescence intensity (a.u.)
TCCGAATTTCAATTAGTTCTAAATTATAAACCGGTATGGACGGAGTCACCTAGTGCAG	15300 fluorescence intensity (a.u.)
TTTAAAAGTAATTGAAATTGTGTTCTTTAGGCTTAGTAATCGGAGTCACCTAGTGCAG	9280 fluorescence intensity (a.u.)
TCACTTTGATTATCGTAATCTACCGTGATCCGAGCTGAAACGGAGTCACCTAGTGCAG	12400 fluorescence intensity (a.u.)
